Experimental data published in PubChem BioAssay AID2675 (National Center for Advancing Translational Sciences (NCATS), 2010).
Out of some 280,000 compounds screened, about 100 (0.036%) were called active. This list was built around the results that the source calls inconclusive (neither active nor inactive); the mix of calls is not that of the screen. Calls follow the shape of the dose curve; as a rule, active = well fitted inhibition curve with a large enough effect in the signal ratio, with a control signal flat (not every such curve was filed as active); inconclusive = small, poorly fitted or top-dose-only effect, or effect the other way, or a change in a side signal; inactive = no such curve, though single readings can be large or run the other way; the % refers to the signal ratio. Where the call is inconclusive, the potency comes from a doubtful curve fit. “Side channel” marks fits to a control or component signal instead of the main read-out.

Target: Muscleblind-like protein 1 (Homo sapiens) (UniProt Q9NR56)
Test: qHTS Assay for Inhibitors of MBNL1-poly(CUG) RNA binding
Conditions: TR-FRET MBNL1-His/biotin-(CUG)12 binding, 665/545 ratio; series mostly up to 57.5 µM
In short: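 Ratiometric TR-FRET (665 over 545 nm, excitation 340 nm) tracks disruption of MBNL1-His/biotin-(CUG)12 complex after 60 min at room temperature, with compounds at 92 nM to 58 uM final.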
Potency is read from the fitted curve at half-maximal effect; tags tell the direction and shape of the fitted curve or compound fluorescence and quenching.

Sequence of UniProt Q9NR56 (Q9NR56 whole entry, looked up): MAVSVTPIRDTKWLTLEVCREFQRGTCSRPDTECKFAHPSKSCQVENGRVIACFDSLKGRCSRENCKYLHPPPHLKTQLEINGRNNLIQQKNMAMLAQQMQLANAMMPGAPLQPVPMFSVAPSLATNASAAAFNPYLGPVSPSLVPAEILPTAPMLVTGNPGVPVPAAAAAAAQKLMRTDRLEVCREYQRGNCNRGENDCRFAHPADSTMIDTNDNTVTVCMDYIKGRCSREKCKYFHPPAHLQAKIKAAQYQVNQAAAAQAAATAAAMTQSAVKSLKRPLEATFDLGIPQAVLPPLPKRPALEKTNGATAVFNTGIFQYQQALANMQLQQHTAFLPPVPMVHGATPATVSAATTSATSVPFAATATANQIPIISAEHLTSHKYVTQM

**Q.** Which Potency does the source give for `COc1cc(/C=C(\C#N)c2nc3ccccc3[nH]2)ccc1O` here?
**A.** The Potency was inconclusive: 15.8 µM [quencher, side channel, partial curve].

**Q.** With `Cc1cc(NC(=O)c2cc(-c3cccnc3)nc3c(C)c(C)ccc23)no1` as the compound, how does the Potency read?
**A.** Its Potency is “inactive”.

**Q.** `CCN1CCCC1CNC(=O)Cn1nc(C)n2c(cc3cc(F)ccc32)c1=O` (stereo not given) was tested. Which Potency did it give?
**A.** Its Potency is inconclusive: 20 µM [quencher, side channel, single point].

**Q.** Which Potency does the source give for `CC(=O)C(C(C)=O)C1(O)C(=O)c2ccccc2C1=O` here?
**A.** The Potency was inconclusive: 31.6 µM [inhibitor, single point].

**Q.** `CN1CCN(C(=O)CNc2ccc(C(F)(F)F)cc2[N+](=O)[O-])CC1` was tested. Which Potency did it give?
**A.** The Potency was inconclusive: 20 µM [quencher, side channel, partial curve].

**Q.** How did the Potency turn out when `O=C1C(=O)N(CCc2c[nH]c3ccccc23)C(c2cccnc2)/C1=C(/O)c1ccccc1` (stereo not given) was run?
**A.** The Potency was inconclusive: 35.5 µM [quencher, side channel, single point].

**Q.** `O=C(N/N=C/c1cc2ccccc2nc1Cl)c1ccncc1` was tested. Which Potency did it give?
**A.** Its Potency is inconclusive: 7.08 µM [quencher, partial curve].

**Q.** `CCOc1ccc(Nc2c3ccccc3nc3ccccc23)cc1` was tested. Which Potency did it give?
**A.** The Potency was inconclusive: 14.1 µM [quencher, partial curve].

**Q.** With `CCOC(=O)C1CCN(c2ccc([N+](=O)[O-])c(C(C)=O)c2)CC1` as the compound, how does the Potency read?
**A.** Its Potency is inconclusive: 17.8 µM [quencher, side channel, partial curve].

**Q.** For `CCn1c(COc2cccc(C)c2)nc2ccccc21`, which Potency is on record?
**A.** The Potency was inconclusive: 39.8 µM [inhibitor, single point].

**Q.** How did the Potency turn out when `COc1ccc(NC(=O)C2CCCN2C(=O)NC2CCCCC2)c(OC)c1` (stereo not given) was run?
**A.** The Potency was inconclusive: 39.8 µM [fluorescent, side channel, single point].

**Q.** `CN(C)C(=O)c1ccc(NC(=O)COc2ccc([N+](=O)[O-])cc2)cc1` was tested. Which Potency did it give?
**A.** The Potency was inconclusive: 22.4 µM [quencher, side channel, partial curve].

**Q.** `C/C(=C\c1ccc(N)cc1)c1nc2ccccc2[nH]1` was tested. Which Potency did it give?
**A.** The Potency was inconclusive: 20 µM [quencher, side channel, partial curve].

**Q.** For `Cc1ccc(CN2CCN(/N=C/c3cc(Br)cc(Br)c3O)CC2)cc1`, which Potency is on record?
**A.** The Potency was inconclusive: 100 µM [inhibitor, single point].

**Q.** `COc1ccc(N(CC(=O)Nc2nccs2)S(=O)(=O)c2c(C)[nH]c(=O)[nH]c2=O)cc1` was tested. Which Potency did it give?
**A.** Its Potency is “inactive”.

**Q.** How did the Potency turn out when `CC(=C\c1ccccc1)/C=C1/SC(=O)N(CCCC(=O)Nc2ccc(C(=O)O)cc2)C1=O` was run?
**A.** Its Potency is inconclusive: 14.1 µM [quencher, side channel, partial curve].

**Q.** Which Potency does the source give for `O=C1OCCN/C1=C\C(=O)c1ccc(Cl)cc1` here?
**A.** Its Potency is inconclusive: 7.94 µM [quencher, side channel, partial curve].

**Q.** `NS(=O)(=O)c1ccc(NC(CNS(=O)(=O)c2ccccc2)c2ccccc2)cc1` (stereo not given) was tested. Which Potency did it give?
**A.** Its Potency is inconclusive: 0.891 µM [quencher, side channel, single point].

**Q.** Which Potency does the source give for `N#Cc1c(-c2ccc(Br)cc2)nc2n(c1=O)CCCS2` here?
**A.** Its Potency is inconclusive: 17.8 µM [quencher, side channel, partial curve].

**Q.** How did the Potency turn out when `Cn1cc(CN2CCc3c([nH]c4ccccc34)C2C2CCCCC2)cn1` (stereo not given) was run?
**A.** The Potency was inconclusive: 39.8 µM [quencher, side channel, single point].

**Q.** How did the Potency turn out when `COc1ccccc1C(=O)Nc1ccnn1C1CCN(Cc2ccn[nH]2)CC1` was run?
**A.** The Potency was “inactive”.

**Q.** With `CCOc1ccc(NC(=O)c2sc3nc(N4CCOCC4)c4c(c3c2N)CCCC4)cc1` as the compound, how does the Potency read?
**A.** Its Potency is “inactive”.

**Q.** For `C1CCC(Nc2nc3nonc3nc2N2CCSCC2)C1`, which Potency is on record?
**A.** The Potency was inconclusive: 3.55 µM [quencher, side channel, partial curve].

**Q.** `O=[N+]([O-])c1cccc2c(S(=O)(=O)N3CCCCC3)cccc12` was tested. Which Potency did it give?
**A.** The Potency was inconclusive: 15.8 µM [quencher, partial curve].

**Q.** `Cc1ccc(CN2CCN(CCCc3ccccc3)CC2CCO)cc1` (stereo not given) was tested. Which Potency did it give?
**A.** Its Potency is “inactive”.

**Q.** For `CCCc1nnc(SCC(=O)O)n1/N=C/c1ccc2c(c1)OCO2`, which Potency is on record?
**A.** The Potency was “inactive”.

**Q.** `CCN1c2ccccc2NC2C1C(C(C)=O)C(=O)N2c1ccc(Cl)cc1` (stereo not given) was tested. Which Potency did it give?
**A.** The Potency was inconclusive: 15.8 µM [quencher, side channel, single point].

**Q.** `CCN(Cc1cnn(C)c1)Cc1nc(C(c2ccccc2)c2ccccc2)no1` was tested. Which Potency did it give?
**A.** The Potency was inconclusive: 63.1 µM [inhibitor, single point].

**Q.** Which Potency does the source give for `O=C(COc1ccc2ccc(=O)oc2c1)N1CC[C@@]2(O)CCCC[C@H]2C1` here?
**A.** The Potency was “inactive”.

**Q.** For `O=C(COc1ccc([N+](=O)[O-])cc1)NCCC1=CCCCC1`, which Potency is on record?
**A.** Its Potency is inconclusive: 4.47 µM [quencher, side channel, partial curve].

**Q.** Which Potency does the source give for `CCOC(=O)c1cnc2c(C(=O)OC)cccc2c1NCc1ccco1` here?
**A.** Its Potency is inconclusive: 35.5 µM [quencher, side channel, single point].

**Q.** For `CN(C)C(=O)c1noc2cc([N+](=O)[O-])ccc12`, which Potency is on record?
**A.** Its Potency is inconclusive: 12.6 µM [quencher, side channel, partial curve].

**Q.** `CCN(CC)c1ccc(/C=C2\SC(=O)N(C(C)C)C2=O)o1` was tested. Which Potency did it give?
**A.** The Potency was “inactive”.

**Q.** `Cc1cccc(NC(=O)c2ccc(NCC3CCCO3)c([N+](=O)[O-])c2)c1` (stereo not given) was tested. Which Potency did it give?
**A.** Its Potency is inconclusive: 8.91 µM [quencher, side channel, single point].

**Q.** For `CC(C)c1nnc2n1N=C(c1ccc(Cl)cc1)CS2`, which Potency is on record?
**A.** Its Potency is “inactive”.

**Q.** Which Potency does the source give for `O=C(NC1CCN(Cc2ccccc2)CC1)C1CCCN(S(=O)(=O)c2cccc3nonc23)C1` (stereo not given) here?
**A.** The Potency was inconclusive: 14.1 µM [quencher, side channel, partial curve].

**Q.** `COc1ccc(C(=O)/C=C2\NCCc3cc(OC)c(OC)cc32)cc1OC` was tested. Which Potency did it give?
**A.** Its Potency is inconclusive: 17.8 µM [quencher, side channel, partial curve].

**Q.** Which Potency does the source give for `COc1ccc(-n2ccc(-c3nn(-c4cccc(C(F)(F)F)c4)ccc3=O)n2)cc1` here?
**A.** The Potency was inconclusive: 0.141 µM [quencher, side channel, full curve, poor fit].

**Q.** Which Potency does the source give for `O=[N+]([O-])c1cnc2ccccn12` here?
**A.** Its Potency is inconclusive: 25.1 µM [quencher, side channel, partial curve].

**Q.** `C/C(=N/NS(=O)(=O)c1cccc([N+](=O)[O-])c1)c1c[nH]c2ccccc12` was tested. Which Potency did it give?
**A.** The Potency was inconclusive: 28.2 µM [quencher, side channel, single point].

**Q.** With `COc1cc(N2CCCC2)ccc1C=O` as the compound, how does the Potency read?
**A.** Its Potency is inconclusive: 28.2 µM [quencher, side channel, single point].

**Q.** How did the Potency turn out when `COc1ccc(CCNc2oc(-c3ccc(C)cc3)nc2C#N)cc1OC` was run?
**A.** The Potency was inconclusive: 126 µM [inhibitor, partial curve].

**Q.** For `CCn1c(C)c(C(C)=O)c(N2CCN(c3ccc(OC)cc3)CC2)nc1=S`, which Potency is on record?
**A.** The Potency was inconclusive: 25.1 µM [quencher, side channel, partial curve].

**Q.** For `O=C(O/N=C\c1ccc(N2CCCCC2)c([N+](=O)[O-])c1)c1c(F)cccc1F`, which Potency is on record?
**A.** Its Potency is inconclusive: 35.5 µM [quencher, side channel, single point].

**Q.** Which Potency does the source give for `O=C(NNS(=O)(=O)c1ccc([N+](=O)[O-])cc1)c1ccc([N+](=O)[O-])cc1` here?
**A.** The Potency was inconclusive: 15.8 µM [quencher, side channel, partial curve].

**Q.** Which Potency does the source give for `CC(NC(=O)COc1ccccc1)C(=O)OCC(=O)c1cc2ccccc2o1` (stereo not given) here?
**A.** The Potency was inconclusive: 25.1 µM [quencher, side channel, single point].

**Q.** `CCOc1cc(/C=N/Nc2nnc(C)n2N)ccc1O` was tested. Which Potency did it give?
**A.** The Potency was inconclusive: 14.1 µM [quencher, side channel, partial curve].

**Q.** For `COc1cc(/C=N/O)ccc1OCc1ccc(C(=O)O)cc1`, which Potency is on record?
**A.** The Potency was “inactive”.

**Q.** Which Potency does the source give for `O=C(/C=C/c1ccc2c(c1)OCCCO2)c1ccccc1O` here?
**A.** Its Potency is “inactive”.

**Q.** Which Potency does the source give for `O=C(/C=C/c1ccc(Cl)cc1)NC(=S)Nc1ccc(C(=O)O)cc1` here?
**A.** Its Potency is “inactive”.

**Q.** For `Cn1cnnc1SCC(=O)c1cc2ccccc2oc1=O`, which Potency is on record?
**A.** Its Potency is inconclusive: 7.08 µM [quencher, side channel, partial curve].

**Q.** For `CCC(C)c1ccc(NC(=S)Nc2ccc(OC)cc2C)cc1` (stereo not given), which Potency is on record?
**A.** The Potency was inconclusive: 0.355 µM [fluorescent, side channel, partial curve].

**Q.** `Cc1cc(/C=C(\C#N)C(=O)NCc2ccco2)c(C)n1-c1cccnc1` was tested. Which Potency did it give?
**A.** The Potency was inconclusive: 25.1 µM [quencher, side channel, single point].

**Q.** How did the Potency turn out when `O=C(NNc1ccc([N+](=O)[O-])cc1)c1ccccc1Cl` was run?
**A.** The Potency was inconclusive: 39.8 µM [quencher, side channel, single point].

**Q.** With `COc1ccc(CCNc2ccc(C(CC(N)=O)NC(=O)c3cc(C)cc(C)c3)cc2[N+](=O)[O-])cc1` (stereo not given) as the compound, how does the Potency read?
**A.** Its Potency is inconclusive: 22.4 µM [quencher, side channel, partial curve].

**Q.** Which Potency does the source give for `O=C(Nc1ccc(N2CCCC2)cc1)c1cccc(Cl)c1` here?
**A.** The Potency was “inactive”.

**Q.** How did the Potency turn out when `O=c1c2nnn(Cc3ccc(Cl)cc3)c2ncn1Cc1ccc(F)cc1` was run?
**A.** The Potency was inconclusive: 3.16 µM [quencher, side channel, single point].

**Q.** `CCOC(=O)COc1cc([N+](=O)[O-])cc2cccnc12` was tested. Which Potency did it give?
**A.** Its Potency is inconclusive: 17.8 µM [quencher, side channel, partial curve, poor fit].

**Q.** Which Potency does the source give for `O=C(CSc1nncc(=O)[nH]1)Nc1cccc([N+](=O)[O-])c1` here?
**A.** The Potency was inconclusive: 20 µM [quencher, side channel, partial curve].

**Q.** How did the Potency turn out when `COc1ccc(OC)c(C2=NS(=O)(=O)N(C)C(C(=O)Nc3ccc(C(C)=O)cc3)=C2)c1` was run?
**A.** The Potency was inconclusive: 12.6 µM [quencher, side channel, partial curve].
